Counter-ions that a name gives are not always drawn. ± gives the standard deviation of the averaged measurements. Over roughly 1,900 compounds, “normalised cell viability (NPI; 0 = phenylarsine oxide control, 1 = DMSO control)” has its median near 1; the lowest 2% begin near 0.039. The list shows a part of the results.
Tested on: NCI-H1944
Test: normalised cell viability (NPI; 0 = phenylarsine oxide control, 1 = DMSO control) (fraction of DMSO control); NCI-H1944 is a non-small cell lung cancer line; higher = more viable cells (less compound toxicity)
Settings: 6 days
[1] = glucocorticoid arm: hydrocortisone 2.75 uM co-treatment, compound 1 µM
[2] = glucocorticoid arm: hydrocortisone 2.75 uM co-treatment, compound 5 µM
[3] = glucocorticoid arm: hydrocortisone 2.75 uM pre-treated 2 days and continued, compound 1 µM
[4] = glucocorticoid arm: hydrocortisone 2.75 uM pre-treated 2 days and continued, compound 5 µM
[5] = glucocorticoid arm: vehicle, compound 1 µM
[6] = glucocorticoid arm: vehicle, compound 5 µM
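Also: CTB read-out in 384-well plates, mean of triplicate wells, normalised per plate against 1 µM phenylarsine oxide and 0.1% DMSO, compounds added 24 h after seeding.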

| SMILES | normalised cell viability [1] | normalised cell viability [2] | normalised cell viability [3] | normalised cell viability [4] | normalised cell viability [5] | normalised cell viability [6] |
| --- | --- | --- | --- | --- | --- | --- |
| COc1cccc(OC)c1OCCNCC1CSc2ccccc2O1 (stereo not drawn) [Benoxathian hydrochloride] | 0.9973 ± 0.0023 | 0.942 ± 0.013 | 1.007 ± 0.0058 | 1.005 ± 0.0071 | 0.9933 ± 0.0065 | 0.999 ± 0.01 |
| Cc1ccc(C(=O)c2cc(/C=C/C(=O)NO)n(C)c2)cc1 | 1 ± 0.022 | 1.02 ± 0.02 | 1 ± 0.021 | 1.02 ± 0.017 | 0.9928 ± 0.0048 | 0.995 ± 0.022 |
| CN(C[C@@H]1COCCO1)S(=O)(=O)Nc1ccc2ccc3ncc(-c4cnn(C)c4)cc3c(=O)c2c1 | 0.971 ± 0.025 | 0.743 ± 0.019 | 0.996 ± 0.0027 | 0.852 ± 0.0091 | 0.9847 ± 0.0055 | 0.849 ± 0.0076 |
| COc1cc(CNC(=O)CCCCCCC(C)C)ccc1O [Dihydrocapsaicin] | 1.007 ± 0.0058 | 1.02 ± 0.026 | 1.01 ± 0.013 | 1.04 ± 0.082 | 0.9943 ± 0.0067 | 1.006 ± 0.0075 |
| CC/C(=C(\c1ccccc1)c1ccc(OCCN(C)C)cc1)c1ccccc1 [Tamoxifen Citrate] | 0.9403 ± 0.0084 | 0.897 ± 0.017 | 0.9853 ± 0.0075 | 0.964 ± 0.05 | 0.9947 ± 0.0035 | 0.9973 ± 0.0025 |
| CC(C)(C)NCC(O)c1cc(O)cc(O)c1 (stereo not drawn) [Terbutaline hemisulfate] | 0.9973 ± 0.0046 | 1.02 ± 0.022 | 1.01 ± 0.024 | 0.988 ± 0.014 | 0.9923 ± 0.0038 | 0.9953 ± 0.0064 |
| O=C(O)CCCCC1CCSS1 (racemic) [(±)-alpha-Lipoic Acid] | 1 ± 0.015 | 1.01 ± 0.027 | 1.02 ± 0.03 | 0.984 ± 0.015 | 1.003 ± 0.0058 | 1.01 ± 0.011 |
| CCOC(=O)[N-]c1c[n+](N2CCOCC2)no1 [Molsidomine] | 0.9947 ± 0.005 | 0.983 ± 0.012 | 0.998 ± 0.0035 | 1 ± 0.076 | 0.989 ± 0.0046 | 0.9937 ± 0.006 |
| CC[N+](CC)(CC)CCOc1cccc(OCC[N+](CC)(CC)CC)c1OCC[N+](CC)(CC)CC [Gallamine triethiodide] | 1.017 ± 0.0058 | 1.01 | 1.02 ± 0.011 | 1.023 ± 0.0058 | 1.007 ± 0.0058 | 1.013 ± 0.0058 |
| CC[N+](CC)(CC)CCOc1cccc(OCC[N+](CC)(CC)CC)c1OCC[N+](CC)(CC)CC [Gallamine Triethiodide] | 1.01 ± 0.021 | 1.027 ± 0.0058 | 1.02 ± 0.01 | 1.043 ± 0.0058 | 0.9957 ± 0.0035 | 1.003 ± 0.0058 |
| COc1cc2ncnc(Nc3ccc(F)c(Cl)c3)c2cc1OCCCN1CCOCC1 [Gefitinib(Iressa); Gefitinib] | 0.9707 ± 0.0076 | 0.906 ± 0.013 | 0.98 ± 0.013 | 0.912 ± 0.011 | 0.9413 ± 0.0031 | 0.867 ± 0.014 |
| COc1cc2ncnc(Nc3ccc(F)c(Cl)c3)c2cc1OCCCN1CCOCC1 [Gefitinib (Iressa)] | 0.853 ± 0.023 | 0.776 ± 0.03 | 0.876 ± 0.035 | 0.8387 ± 0.0061 | 0.889 ± 0.024 | 0.785 ± 0.045 |
| CN1CCN(c2nc(C3=C(c4c[nH]c5ccccc45)C(=O)NC3=O)c3ccccc3n2)CC1 [Sotrastaurin (AEB071)] | 1.027 ± 0.0058 | 1.11 ± 0.023 | 1.04 | 1.1 ± 0.01 | 1.007 ± 0.0058 | 1.027 ± 0.0058 |
| CN1CCC[C@@H]1CCO[C@](C)(c1ccccc1)c1ccc(Cl)cc1 [Clemastine Fumarate] | 0.962 ± 0.014 | 0.932 ± 0.025 | 0.968 ± 0.022 | 0.952 ± 0.012 | 0.9773 ± 0.0097 | 0.975 ± 0.01 |
| CN1CCC[C@@H]1CCO[C@](C)(c1ccccc1)c1ccc(Cl)cc1 [Clemastine fumarate] | 1.01 | 0.919 ± 0.011 | 1.01 ± 0.01 | 1 ± 0.05 | 1.001 ± 0.0081 | 0.98 ± 0.03 |
| O=C(c1ccc(OCCCc2c[nH]cn2)cc1)C1CC1 [Ciproxifan] | 1.05 ± 0.017 | 1.077 ± 0.0058 | 1.023 ± 0.0058 | 1.03 ± 0.02 | 1.027 ± 0.0058 | 1.01 ± 0.01 |

| SMILES | normalised cell viability [1] | normalised cell viability [2] | normalised cell viability [3] | normalised cell viability [4] | normalised cell viability [5] | normalised cell viability [6] |
| --- | --- | --- | --- | --- | --- | --- |
| CN(CC[C@@H](Oc1ccc(C(F)(F)F)cc1)c1ccccc1)CC(=O)[O-].[Li+] | 0.992 ± 0.0046 | 0.989 ± 0.011 | 0.99 ± 0.014 | 0.998 ± 0.018 | 0.979 ± 0.016 | 0.9777 ± 0.0035 |
| COC(=O)[C@]12CCC(C)(C)C[C@H]1[C@H]1C(=O)C=C3[C@@]4(C)C=C(C#N)C(=O)C(C)(C)[C@@H]4CC[C@@]3(C)[C@]1(C)CC2 [Bardoxolone Methyl] | 0.00114 ± 0.00058 | 1.08 ± 0.01 | 0.00366 ± 0.0014 | 1.1 ± 0.015 | 0.00138 ± 0.00077 | 0.858 ± 0.022 |
| O=C(O)c1cccnc1C(=O)O [Quinolinic acid] | 0.9833 ± 0.0093 | 0.946 ± 0.017 | 0.877 ± 0.2 | 0.994 ± 0.017 | 0.9823 ± 0.004 | 0.984 ± 0.0027 |
| Nc1nc2[nH]cc(CCc3ccc(C(=O)N[C@@H](CCC(=O)O)C(=O)O)cc3)c2c(=O)[nH]1 [Pemetrexed; Pemetrexed Disodium] | 0.931 ± 0.018 | 1.07 ± 0.01 | 0.934 ± 0.006 | 1.04 ± 0.017 | 0.898 ± 0.013 | 1 ± 0.012 |
| CCN1CCN(Cc2ccc(Nc3ncc(F)c(-c4cc(F)c5nc(C)n(C(C)C)c5c4)n3)nc2)CC1 | 0.493 ± 0.041 | 0.312 ± 0.06 | 0.528 ± 0.03 | 0.599 ± 0.14 | 0.252 ± 0.028 | 0.000109 ± 0.00093 |
| COCCc1ccc(OCC(O)CNC(C)C)cc1 (stereo not drawn) [Metoprolol Tartrate] | 0.992 ± 0.018 | 0.916 ± 0.016 | 0.9933 ± 0.007 | 0.9383 ± 0.0075 | 0.977 ± 0.013 | 1.007 ± 0.0058 |
| N[C@H](C(=O)O)[C@H]1C[C@@H]1C(=O)O [(2S,1'S,2'S)-2-(carboxycyclopropyl)glycine] | 0.99 ± 0.0046 | 0.979 ± 0.019 | 0.994 ± 0.0095 | 0.978 ± 0.015 | 0.9847 ± 0.0055 | 0.9883 ± 0.0097 |
| O=C(O)C1(C(=O)O)CCC1.[NH2-].[NH2-].[Pt+2] [Carboplatin] |  |  | 1.02 |  | 1 |  |
| COC(=O)C(N)Cc1ccc(Cl)cc1 (racemic) [DL-p-Chlorophenylalanine methyl ester hydrochloride] | 1.02 ± 0.01 | 1.02 ± 0.015 | 1.017 ± 0.0058 | 1.02 ± 0.014 | 1.006 ± 0.0069 | 1.017 ± 0.0058 |
| O=C(Nc1ccc([N+](=O)[O-])cc1O)Nc1ccccc1Br | 0.987 ± 0.013 | 0.386 ± 0.027 | 0.985 ± 0.015 | 0.9383 ± 0.0085 | 0.9703 ± 0.006 | 0.0592 ± 0.0097 |
| O=C(c1cncc(Br)c1)N1CCC(N2CCCC2)CC1 | 0.988 ± 0.015 | 1.02 ± 0.01 | 0.99 ± 0.017 | 1.01 ± 0.02 | 0.9927 ± 0.005 | 0.9893 ± 0.0031 |
| O=c1c(O)c(-c2ccc(O)c(O)c2)oc2cc(O)cc(O)c12 [Quercetin] | 0.9767 ± 0.0064 | 1.01 ± 0.016 | 0.976 ± 0.015 | 0.983 ± 0.013 | 0.996 ± 0.0061 | 0.991 ± 0.005 |
| O=c1c(O)c(-c2ccc(O)c(O)c2)oc2cc(O)cc(O)c12 [Quercetin (Sophoretin)] | 1.01 ± 0.011 | 1.03 ± 0.025 | 1.01 ± 0.015 | 0.993 ± 0.034 | 0.9973 ± 0.0046 | 1.017 ± 0.0058 |
| O=c1c(O)c(-c2ccc(O)c(O)c2)oc2cc(O)cc(O)c12 [Quercetin dihydrate] | 0.996 ± 0.0052 | 0.978 ± 0.017 | 0.779 ± 0.4 | 0.999 ± 0.018 | 1.01 | 1.007 ± 0.0058 |
| COc1ccc(NC(=O)c2ccc(-c3ccc(-c4noc(C)n4)cc3C)cc2)cc1N1CCN(C)CC1 | 1.006 ± 0.0063 | 0.000294 ± 0.00029 | 1.02 ± 0.01 | 0.00887 ± 0.01 | 0.9987 ± 0.0023 | 0.000181 ± 0.0015 |
| CCCCNc1ccc(C(=O)OCCN(C)C)cc1 [Tetracaine hydrochloride] | 1.001 ± 0.0081 | 1.03 ± 0.01 | 1.02 ± 0.021 | 1.023 ± 0.0058 | 0.9867 ± 0.0021 | 0.9877 ± 0.0038 |

From the supplement of paper PMC8285479
